From the RNAGym collection of RNA variant scans (doi:10.7554/elife.90254) come the findings set out here.

Read counts are not given, so values of variants with three or more changes are uncertain.

Sequences and labels used below:
B1: LINE1-full (parent)
chain: UACGUAGGUGGUUUUCCCCUGAUAGUGCUAAGGGGGCCUGGAAGUUUGGACUGGGCAGAGCUCAACACAGCGUGGCAAAGUGGCUGUGGCUAGACUGCCUCUCUGGAUUCCUCGUCACUCAGCAGGGCAUCUCUGAGAGAAAUGCC

The variants in this series derive from B1. Kind of series: self-cleavage, relative activity (ratio to wild type); higher = more cleavage; in vitro, sequencing; the parent is a self-cleaving ribozyme.
With U47C A65G C84A A107G, the self-cleavage worked out at 0.

Take U1A C17U A140G: the self-cleavage was found to be 0.41.

With U14C G36A A57U, the self-cleavage was 0.08.

Consider U13C U20C U52A G60A U102C U115C, for which the self-cleavage was 0.

With U14C U85C U143C, the self-cleavage was 0.35.

With U26C G41A C61G U85C U119A, the self-cleavage is 0.

Regarding G83A U115A A124G A129G, the self-cleavage is 0.48.

Take G7U G8U A129U: the self-cleavage was 1.99.

Turning to A43G U62C G127U, the self-cleavage was 0.11.

Turning to A31U A57G U73G U87C A136G, the self-cleavage was 0.51.

Take A24G A67U U100A U109C A117G: the self-cleavage stood at 0.

Take A30G A57U A141G: the self-cleavage was found to be 0.33.

For A31U A50G A140G, the self-cleavage came out at 0.84.

For the variant G32A U73C U91A, the self-cleavage was determined as 0.72.

On to U47A U52A U62C A141G, for which the self-cleavage is 0.02.

With U47A U85A A138U, the self-cleavage stood at 0.1.

Turning to G83A U130C U132C A136G, the self-cleavage turned out to be 1.21.

For A24G G32A U39C U52G A129G A136G, the self-cleavage was determined as 0.84.

Regarding U26G A79G A142G, the self-cleavage was 1.4.

Regarding U12G U46C U52A, the self-cleavage came to 1.07.

For the variant U1C C3U U13C C61U A64G, the self-cleavage is 0.13.

For the variant U96A A136G A142G, the self-cleavage was found to be 0.14.

As for A2G U12A U14A U104C, the self-cleavage amounted to 0.

Regarding A42G U52C A129G U132C, the self-cleavage was 1.31.

Consider U26C A57U U73A, for which the self-cleavage was 0.17.

In the case of U45C U85C A136G, the self-cleavage turned out to be 0.47.

Take A24C A79G A138G: the self-cleavage turned out to be 0.68.

On to G7A G36A A50G C51G A117G A140G, for which the self-cleavage was determined as 0.18.

With G34A U47C A77G U102C, the self-cleavage was found to be 1.31.

Regarding A42G A79G A121G, the self-cleavage amounted to 1.15.

For the variant C71U U87A U100C U102C C123U A129G, the self-cleavage turned out to be 0.

Take U12C A57U U119A A138G: the self-cleavage was determined as 0.24.

U39C U85C U119A U143C: the self-cleavage came to 0.

As to A22G U100C U130C, the self-cleavage was 0.63.

With A57G U102C A141U, the self-cleavage amounted to 0.63.

A67U U108C U132A: the self-cleavage was 0.2.

U14C A31U U73C U119A A138G: the self-cleavage was found to be 2.3.

For U13C G80A U96C U104C, the self-cleavage stood at 0.22.

On to U14C U130C A138G, for which the self-cleavage came to 1.25.

In the case of G72A A107G A141U, the self-cleavage came out at 1.43.

For U47C A79G U115C, the self-cleavage is 0.

As for U23C A42G A64U G72A U132A G135C, the self-cleavage is 0.39.

As for C3U U96A U108A, the self-cleavage stood at 0.

U15C U45C C68U U96C U100C: the self-cleavage was determined as 0.

For G33A C95U A121U A136G, the self-cleavage was 0.24.

On to A77G A117G A140G, for which the self-cleavage is 2.83.

On to U85G C99U A124G, for which the self-cleavage is 0.11.

U20A U62C A78G C146U: the self-cleavage turned out to be 0.09.

In the case of A2G G72A U108C, the self-cleavage is 1.21.

G25A A57U U62A A141C: the self-cleavage was found to be 0.02.

G10C A50G U87C: the self-cleavage is 0.

In the case of G4A U73G A78G A136G, the self-cleavage was determined as 0.91.

Regarding C17U C28U U62A A67G G72A, the self-cleavage came out at 0.14.

In the case of A22G A43G U46C U85A, the self-cleavage was determined as 0.17.

For A59G U81C C99U, the self-cleavage worked out at 0.09.

Consider U15C U73C A78G A142U, for which the self-cleavage turned out to be 1.75.

Turning to A77G U115C A124U A129U, the self-cleavage was determined as 2.23.

Turning to G60A A65G U134C, the self-cleavage came out at 0.05.

For U29C C37U A140G, the self-cleavage worked out at 0.79.

On to A22U U81A U100C U132C A142G, for which the self-cleavage was found to be 0.

Regarding U15C C19U C37G A129G, the self-cleavage came out at 1.56.

On to A65G U73C U87A, for which the self-cleavage is 0.

Turning to C38U A42G U85C, the self-cleavage stood at 0.16.

Consider G4A A30G G144A, for which the self-cleavage turned out to be 0.85.

As for U26C A94G A129G, the self-cleavage was 1.53.

In the case of U9A U12C U115C, the self-cleavage worked out at 2.63.

In the case of A79G U91A A92U A94G, the self-cleavage amounted to 0.

Consider U26C A31G G72A, for which the self-cleavage came to 1.8.

For U29A A59G U73C, the self-cleavage came to 0.

As for G8A U29C U108C U130C, the self-cleavage came out at 0.

On to U1C U46A A78G A107U U143C, for which the self-cleavage stood at 0.72.

Regarding A65G U112C U119G A121U, the self-cleavage is 0.

In the case of U9C U15G U62A U112C, the self-cleavage was 0.

With U14C U45C U87A, the self-cleavage turned out to be 0.2.

Consider U14A U29C U73C, for which the self-cleavage worked out at 1.31.

As for U39C A57G U130C, the self-cleavage stood at 1.05.

U9A U20C G27A A59U: the self-cleavage was 0.26.

Turning to U39A U45C A117G, the self-cleavage was determined as 1.58.

On to A22G A59G A67G A140U, for which the self-cleavage was determined as 0.

A22C U112C U132C: the self-cleavage was 1.31.

Regarding A2G U14A A64G A121U, the self-cleavage amounted to 0.18.

On to A6G G53U U112A, for which the self-cleavage was found to be 0.66.

As to U1C U85C U87A A136G, the self-cleavage was 0.08.

Turning to U15C C123U A140U, the self-cleavage turned out to be 1.48.

As to U15C A24C C133G, the self-cleavage is 2.48.

As for G10A A94G A124G, the self-cleavage is 0.

As for A24G G88A A94U C116A G126A A129G, the self-cleavage came to 0.03.

On to A22G A117G A142G, for which the self-cleavage worked out at 0.92.

Turning to U26C U91C A124U, the self-cleavage is 1.03.

U15C U102A U108C: the self-cleavage worked out at 1.53.

For U52A U130C A140G, the self-cleavage was 1.34.

As for U14C U47C U104C G125U U143A, the self-cleavage was 1.5.

Consider U13C U115C U119A U132C, for which the self-cleavage amounted to 2.04.

Take A77G U87A A121U: the self-cleavage turned out to be 0.09.

As to U87C U119C C120U, the self-cleavage was found to be 0.07.

As for A50U U104A U119C U132C, the self-cleavage was 0.4.

As to U102C G122A U134C A141G, the self-cleavage stood at 1.45.

Turning to A2G A22G A64G A69G G86A C123A, the self-cleavage came to 0.14.

With A2G G7A U20C A79G, the self-cleavage was found to be 2.42.

Turning to U1G C101A U112C A117U, the self-cleavage was determined as 0.92.

On to A59U A92G U112A, for which the self-cleavage worked out at 0.

As to U9A U39A U73A C120U, the self-cleavage amounted to 1.23.

In the case of U29G A77U U112C, the self-cleavage stood at 1.88.

As for U9A U73A A77U, the self-cleavage was found to be 1.53.

As for U29A G55A A69C, the self-cleavage is 0.03.

Regarding U14C A67G U109C A136U, the self-cleavage was found to be 0.26.

Take A69G G70A A78G G83A U108A U109C A129G: the self-cleavage stood at 0.08.

For the variant U12C A94G A141G, the self-cleavage is 0.26.

Consider U45C U85A A136G A142G U143A, for which the self-cleavage amounted to 0.

On to U96A U102C A136U, for which the self-cleavage came to 0.07.

As to U9A U96C A107G, the self-cleavage is 0.18.

Consider G32C A59G A64G, for which the self-cleavage came out at 0.

Turning to A42U U73C A107G A124G A140G, the self-cleavage amounted to 0.

As to U20C U47C U102C A117G, the self-cleavage amounted to 1.02.

On to U9C G33U A43G, for which the self-cleavage was found to be 0.94.

Regarding G34A U47A U73A C84U A124U, the self-cleavage worked out at 0.07.

Turning to U102C G114A A136U, the self-cleavage turned out to be 2.04.

As to C17A A65G C110U, the self-cleavage turned out to be 0.03.

Take G10A U45C U87A U100C: the self-cleavage was 0.14.

For U26G A92G C113U U115C, the self-cleavage came out at 0.19.

G49A U96G A142G: the self-cleavage was determined as 0.02.

Consider A64G U81A C99U, for which the self-cleavage stood at 0.22.

As for U9A A24U U26A U96C, the self-cleavage is 0.4.

Turning to U15C C17U G55A C120U U143C, the self-cleavage worked out at 0.81.

C19G U20C U73A: the self-cleavage stood at 0.89.

In the case of U96C A107G U115C, the self-cleavage came to 0.21.

On to U29C U39A A57G U130C U134A, for which the self-cleavage stood at 0.

G8A U47C U52C: the self-cleavage came out at 1.36.

U5C U23C A138G: the self-cleavage was 0.97.

With U15C A43U U73A U102C, the self-cleavage is 0.95.

With U23C A77U U112C U134C A138G A142G, the self-cleavage was 1.53.

For U15G U46C A59G G74A, the self-cleavage came to 0.27.

For the variant U15C A24G A42G A138G, the self-cleavage worked out at 1.98.

For the variant A6U A50G A65G G88A A94G U112C A124G, the self-cleavage worked out at 0.

Regarding U12A A77G U96C, the self-cleavage was 0.

As for A24G G55A U81C, the self-cleavage turned out to be 0.64.

With U87C U108G A138G C146U, the self-cleavage turned out to be 0.

For the variant U14C A67C U108C, the self-cleavage amounted to 0.22.

As to U29A A50G U85A U108C A121U, the self-cleavage was 0.13.

As to A64G U81C U119A, the self-cleavage was determined as 0.09.

Consider U13C C28U C37U A59G U134C, for which the self-cleavage is 0.05.

In the case of U14C U119A A140G, the self-cleavage is 1.3.

As to U39A A77G A94G, the self-cleavage turned out to be 0.

Turning to U9A A24G A42G U81A U87A, the self-cleavage amounted to 0.32.

As to U52C A65G A129G, the self-cleavage is 0.21.

With U39A A43G A79G U91C U130C, the self-cleavage worked out at 0.48.

In the case of U46C A57U A64U U119A, the self-cleavage was found to be 0.03.

On to G54U A57G G88U U96C, for which the self-cleavage came to 0.03.

As for U9C U12A U104A, the self-cleavage came to 1.22.

In the case of U47C U108C C120U, the self-cleavage was determined as 1.58.

For the variant U39A G72A U87C U115C U143A, the self-cleavage was found to be 0.28.

As to G32C A43G U87A, the self-cleavage is 0.07.

Take A57U U100C U143A: the self-cleavage worked out at 0.22.

Consider U46C A67G A124G A138G A140G, for which the self-cleavage was 0.

U47C U85G A94C A121U G125U: the self-cleavage came out at 0.18.

Regarding A64U U102C U115C A117G A140G, the self-cleavage came to 0.

For A42G U47C U100C, the self-cleavage came to 1.78.

For U26G A50G U102A, the self-cleavage stood at 0.63.

On to U45C C113U A136G, for which the self-cleavage is 1.32.

For U13C U112A A142G, the self-cleavage turned out to be 1.05.

As for A42G U62A A124G, the self-cleavage is 0.04.

As to C18U U87A U108C U109C C120U C145U, the self-cleavage is 0.08.

Consider A64G A65G A77G, for which the self-cleavage was 0.

A2G U108C A117G: the self-cleavage was found to be 0.

Turning to A78G U109G C113U G114A U119C, the self-cleavage was 0.23.

For the variant A6G A69U G89C U91C A142G, the self-cleavage was found to be 0.

With U12C A22U C37U U96C, the self-cleavage turned out to be 0.2.
